Here are results for 45 molecules from publication PMC4336329 (PLoS ONE, 2015).

In all, about 310,000 compounds went through this assay and about 14,000 (4.5%) showed an effect of 50% or more. The effect is printed as a negative number. The list shows a part of the results.
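Note: peak tail current of the secondary pulse compared with the same well before compound.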

Chain of human ether-à-go-go-related gene (hERG) potassium channel (Q12809 whole entry, looked up): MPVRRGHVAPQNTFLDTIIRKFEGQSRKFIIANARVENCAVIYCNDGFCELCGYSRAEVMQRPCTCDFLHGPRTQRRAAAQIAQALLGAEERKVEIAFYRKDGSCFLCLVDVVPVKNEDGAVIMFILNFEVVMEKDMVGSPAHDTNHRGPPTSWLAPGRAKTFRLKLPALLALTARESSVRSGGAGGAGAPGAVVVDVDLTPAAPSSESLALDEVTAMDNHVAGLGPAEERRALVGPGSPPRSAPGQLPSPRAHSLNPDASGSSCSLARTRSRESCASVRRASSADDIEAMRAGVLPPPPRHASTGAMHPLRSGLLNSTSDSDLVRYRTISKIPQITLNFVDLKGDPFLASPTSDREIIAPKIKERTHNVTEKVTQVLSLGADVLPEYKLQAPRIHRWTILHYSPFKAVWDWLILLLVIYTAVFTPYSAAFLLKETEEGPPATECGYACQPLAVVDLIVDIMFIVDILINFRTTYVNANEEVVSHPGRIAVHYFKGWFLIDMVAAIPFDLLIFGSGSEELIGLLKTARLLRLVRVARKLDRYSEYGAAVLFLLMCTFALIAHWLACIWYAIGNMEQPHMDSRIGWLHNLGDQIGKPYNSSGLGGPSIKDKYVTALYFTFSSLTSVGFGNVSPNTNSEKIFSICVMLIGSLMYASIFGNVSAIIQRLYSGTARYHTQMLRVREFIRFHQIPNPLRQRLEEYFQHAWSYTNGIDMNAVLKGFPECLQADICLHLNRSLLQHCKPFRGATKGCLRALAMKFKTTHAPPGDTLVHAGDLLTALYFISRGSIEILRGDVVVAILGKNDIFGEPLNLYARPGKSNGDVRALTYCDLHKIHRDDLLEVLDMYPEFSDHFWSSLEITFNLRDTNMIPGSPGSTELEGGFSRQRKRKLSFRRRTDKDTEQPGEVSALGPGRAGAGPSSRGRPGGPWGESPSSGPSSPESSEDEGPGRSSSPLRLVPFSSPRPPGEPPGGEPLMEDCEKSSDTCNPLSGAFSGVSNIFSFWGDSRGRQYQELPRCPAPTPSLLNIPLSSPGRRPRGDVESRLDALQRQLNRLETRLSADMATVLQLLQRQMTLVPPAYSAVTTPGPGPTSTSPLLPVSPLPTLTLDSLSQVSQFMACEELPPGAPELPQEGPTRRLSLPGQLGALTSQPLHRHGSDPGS

The test has as its target human ether-à-go-go-related gene (hERG) potassium channel (human, UniProt Q12809). The experiment in a line: primary screen, population patch clamp on CHO cells stably expressing hERG.
As to `CN(C(=O)c1nc(-c2ccccc2)n(-c2ccccc2)n1)C1CCS(=O)(=O)C1` (stereo not drawn), the “hERG current change (%, negative = inhibition) at 10uM” value is 7.86%.
The same measure for `O=C(COC(=O)[C@H](Cc1ccccc1)NS(=O)(=O)c1ccccc1F)NC1CCCCC1`: -40.4%; for `COc1ccccc1CNC(=O)C1CSC2(C)CCC(=O)N12` (stereo not drawn): 1.63%.
In the case of `O=C(O)C[C@H]1c2ccccc2S(=O)(=O)N1c1ccccc1` it was 16.5%.
For `CC(C)COC(=O)n1c(SCC(=O)N(C)C)nc2ccccc21`, the “hERG current change (%, negative = inhibition) at 10uM” value is reported as -7.64%.
As for `C#CCOC(=O)Nc1cc(C)n(-c2ccccc2)n1`, the “hERG current change (%, negative = inhibition) at 10uM” value amounted to 5.38%.
Consider `C/C(=N\Nc1cc(N2CCOCC2)ncn1)c1ccccc1`, for which the “hERG current change (%, negative = inhibition) at 10uM” value is listed as -19%.
The same measure for `CC(=O)/C(N=Nc1c(C)n(C)n(-c2ccccc2)c1=O)=C(\C)O`: 20.6%; for `Cn1c(SCC(=O)c2ccc(O)c(O)c2)nnc1-c1cccs1`: 14.5%; for `COc1ccc(-c2occ(C(=O)O)c2C(=O)O)cc1`: -3.07%.
For `CN(C(=O)CN1CCC(NC(=O)C2CCCCC2)CC1)C1CCCCC1.Cl`, the “hERG current change (%, negative = inhibition) at 10uM” value was 1.84%.
Take `CCN(CC)S(=O)(=O)c1cc(C(=O)Oc2cccc(-c3cnc4ccccc4n3)c2)ccc1Br`: the “hERG current change (%, negative = inhibition) at 10uM” value is on record as 21.8%.
In the case of `O=C(c1nc2ccccn2c1CNCCCn1ncc2ccccc21)N1CCCC1`, the “hERG current change (%, negative = inhibition) at 10uM” value is -37.7%.
Turning to `O=C(CCCn1c(=O)[nH]c2ccccc2c1=O)NC1CCCCCC1`, the “hERG current change (%, negative = inhibition) at 10uM” value is on record as -9.14%.
Turning to `N#CC1(c2ccccc2)CCN(C2CC(=O)N(c3ccc(F)cc3)C2=O)CC1` (stereo not drawn), the “hERG current change (%, negative = inhibition) at 10uM” value is given as 11%.
For `COC(Cn1c(C)c(C(C)=O)c(C(C)=O)c1C)OC`, the “hERG current change (%, negative = inhibition) at 10uM” value is 6%.
In the case of `Cn1c(SCC(=O)Nc2cccc(F)c2)nnc1-c1cccnc1` it was -33.1%; in that of `CC(C)OCCCNC(=O)C1CCC(CNS(=O)(=O)c2cccc3nsnc23)CC1` (stereo not drawn), -10.9%.
With `CNc1ccc(C(=O)c2ccccc2C(=O)O)cc1[N+](=O)[O-]`, the “hERG current change (%, negative = inhibition) at 10uM” value was determined as 33.8%.
In the case of `Cc1cccc(-c2noc(CCCC(=O)Nc3cccnc3)n2)c1` it was -11.6%.
As to `CCC1CCCCN1CCCNC(=O)c1ccc2nc(N3CCCCC3)sc2c1` (stereo not drawn), the “hERG current change (%, negative = inhibition) at 10uM” value was -34%.
In the case of `O=[N+]([O-])c1ccc(C2CN=C(Nc3ccccc3)S2)cc1` (stereo not drawn) it was -60.2%.
In the case of `CCOC(=O)C1CCN(c2nc(C)cc(C)c2C#N)CC1`, the “hERG current change (%, negative = inhibition) at 10uM” value is -3.93%.
Turning to `Cc1cc(C)nc(SCc2nc3ncccn3c2Br)n1`, the “hERG current change (%, negative = inhibition) at 10uM” value is given as -2.09%.
Take `Cc1cc(C)n2nc(C(=O)OCC(=O)N(C)Cc3ccccc3)nc2n1`: the “hERG current change (%, negative = inhibition) at 10uM” value is given as 0.803%.
The same measure for `O=C(NC1CCCC1)C(c1ccco1)N(C(=O)c1ccco1)c1ccccc1` (stereo not drawn): -4.89%.
Consider `Cn1c(SCC(=O)Nc2cc(S(=O)(=O)N3CCOCC3)ccc2N2CCOCC2)nnc1-c1ccncc1`, for which the “hERG current change (%, negative = inhibition) at 10uM” value was 11.4%.
In the case of `CCN(CC)c1ccc(/C=N/NC(=O)C(O)c2ccccc2)cc1` (stereo not drawn), the “hERG current change (%, negative = inhibition) at 10uM” value was 1.71%.
Turning to `COc1ccccc1-n1c(CNC(=O)c2cccs2)n[nH]c1=S`, the “hERG current change (%, negative = inhibition) at 10uM” value is on record as 23.8%.
In the case of `COc1ccc(S(=O)(=O)NC(C)C(=O)NCc2cccnc2)cc1OC` (stereo not drawn), the “hERG current change (%, negative = inhibition) at 10uM” value is 14.9%.
As to `O=C(c1cc([N+](=O)[O-])ccc1N1CCCCC1)N1CCCCC1`, the “hERG current change (%, negative = inhibition) at 10uM” value is recorded as -17.5%.
Regarding `CCn1c(=O)n(CC(=O)NCc2ccccc2OC)c(=O)c2ccccc21`, the “hERG current change (%, negative = inhibition) at 10uM” value is 8.2%.
In the case of `COc1ccccc1CNC(=O)c1ccc(-c2ccccc2Cl)o1`, the “hERG current change (%, negative = inhibition) at 10uM” value came to 4.13%.
In the case of `COc1ccc(C)cc1S(=O)(=O)N(C)CC(N)=O`, the “hERG current change (%, negative = inhibition) at 10uM” value stood at 22.7%.
In the case of `COC(=O)Nc1nc2ccc(SC(C)C)cc2[nH]1` it was 13.4%; in that of `CCOC(=O)C1C(=O)NC2(C)CC1c1cc(OC)ccc1O2` (stereo not drawn), 6.33%.
As to `COc1ccc(C(=O)O)cc1S(=O)(=O)Nc1cccc(C(F)(F)F)c1`, the “hERG current change (%, negative = inhibition) at 10uM” value is -7.21%.
In the case of `Cc1ccc(-n2nc3c(c2NC(=O)c2c(F)cccc2Cl)CS(=O)(=O)C3)cc1C` it was -31.7%; in that of `C=CCN1CC(c2nc3ccccc3n2Cc2ccccc2)CC1=O` (stereo not drawn), -13.8%.
The same measure for `Cc1cc(C)n(CC(=O)N/N=C/c2ccc(C)o2)n1`: -3.72%; for `CCN(CC)C(=O)c1ccc(NC(=O)c2cccc(S(=O)(=O)N3CCN(Cc4ccccc4)CC3)c2)cc1`: -26.2%.
Consider `COc1ccc(NC(=O)c2ccc3ccccc3c2)cc1`, for which the “hERG current change (%, negative = inhibition) at 10uM” value worked out at 11%.
As for `CCO[C@H]1c2c(ccc3ccc(=O)oc23)OC(C)(C)[C@@H]1O`, the “hERG current change (%, negative = inhibition) at 10uM” value was determined as 20.9%.
As to `CCCc1cc(C(N)=S)ccn1`, the “hERG current change (%, negative = inhibition) at 10uM” value was 18.1%.
In the case of `Cc1ccc(/C=N/NC(=O)CNC(=O)c2ccc(S(=O)(=O)N(C)C)cc2)cc1` it was 9.13%.
